{
  "source": "the supplement of paper PMC8728848",
  "binders": {"B1": {"name": "PNGase F (Flavobacterium meningosepticum) (protein)", "chain": "GIPAPADNTVNIKTFDKVKNAFGDGLSQSAEGTFTFPADVTAVKTIKMFIKNECPNKTCDEWDRYANVYVKNKTTGEWYEIGRFITPYWVGTEKLPRGLEIDVTDFKSLLSGNTELKIYTETWLAKGREYSVDFDIVYGTPDYKYSAVVPVVQYNKSSIDGVPYGKAHTLALKKNIQLPTNTEKAYLRTTISGWGHAKPYDAGSRGCAEWCFRTHTIAINNSNTFQHQLGALGCSANPINNQSPGNWTPDRAGWCPGMAVPTRIDVLNNSLIGSTFSYEYKFQNWTNNGTNGDAFYAISSFVIAKSNTPISAPVVTNLDPHHHHHH"}},
  "assay_in_all_cases": "glycan array binding signal (z-score within array); higher = stronger binding",
  "conditions_in_all_cases": "glycan notation: IUPAC condensed, linker removed",
  "key": {"[1]": {"target": "Gal(b1-4)GlcNAc(b1-6)GalNAc", "summary_of_the_method": "(§1)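 Arrays were curated from the Consortium for Functional Glycomics database, 3228 in total, and kept only where the protein sequence was available. Binding is expressed as a within-array Z-score. This score was averaged across arrays of the same protein sequence at different concentrations or buffers and across linkers, and negative values can be read as non-binding.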"}, "[2]": {"target": "Gal(b1-4)GlcNAc(b1-6)[Gal(b1-3)]GalNAc", "summary_of_the_method": "as §1"}, "[3]": {"target": "Gal(b1-4)GlcNAc(b1-6)[Gal(b1-4)GlcNAc(b1-3)]GalNAc", "summary_of_the_method": "as §1"}, "Gal(b1-4)GlcNAc6P": {"target": "Gal(b1-4)GlcNAc6P", "summary_of_the_method": "as §1"}, "Gal(b1-6)Gal": {"target": "Gal(b1-6)Gal", "summary_of_the_method": "as §1"}, "Gal3S(b1-3)GalNAc": {"target": "Gal3S(b1-3)GalNAc", "summary_of_the_method": "as §1"}, "Gal3S(b1-3)GlcNAc": {"target": "Gal3S(b1-3)GlcNAc", "summary_of_the_method": "as §1"}, "[4]": {"target": "Gal3S(b1-3)[Fuc(a1-4)]GlcNAc", "summary_of_the_method": "as §1"}, "Gal3S(b1-4)Glc": {"target": "Gal3S(b1-4)Glc", "summary_of_the_method": "as §1"}, "Gal3S(b1-4)Glc6S": {"target": "Gal3S(b1-4)Glc6S", "summary_of_the_method": "as §1"}, "Gal3S(b1-4)GlcNAc": {"target": "Gal3S(b1-4)GlcNAc", "summary_of_the_method": "as §1"}, "[5]": {"target": "Gal3S(b1-4)[Fuc(a1-3)]Glc6S", "summary_of_the_method": "as §1"}, "[6]": {"target": "Gal3S(b1-4)[Fuc(a1-3)]GlcNAc", "summary_of_the_method": "as §1"}, "[7]": {"target": "Gal3S(b1-4)[Fuc(a1-3)]GlcNAc6S", "summary_of_the_method": "as §1"}, "Gal3S4S(b1-4)GlcNAc": {"target": "Gal3S4S(b1-4)GlcNAc", "summary_of_the_method": "as §1"}, "Gal3S6S(b1-4)GlcNAc": {"target": "Gal3S6S(b1-4)GlcNAc", "summary_of_the_method": "as §1"}, "Gal3S6S(b1-4)GlcNAc6S": {"target": "Gal3S6S(b1-4)GlcNAc6S", "summary_of_the_method": "as §1"}, "Gal4S(b1-4)GlcNAc": {"target": "Gal4S(b1-4)GlcNAc", "summary_of_the_method": "as §1"}, "Gal4S6S(b1-4)GlcNAc": {"target": "Gal4S6S(b1-4)GlcNAc", "summary_of_the_method": "as §1"}, "Gal6P(b1-4)GlcNAc": {"target": "Gal6P(b1-4)GlcNAc", "summary_of_the_method": "as §1"}, "Gal6S(b1-3)GlcNAc": {"target": "Gal6S(b1-3)GlcNAc", "summary_of_the_method": "as §1"}, "Gal6S(b1-3)GlcNAc6S": {"target": "Gal6S(b1-3)GlcNAc6S", "summary_of_the_method": "as §1"}, "Gal6S(b1-4)Glc": {"target": "Gal6S(b1-4)Glc", "summary_of_the_method": "as §1"}, "Gal6S(b1-4)Glc6S": {"target": "Gal6S(b1-4)Glc6S", "summary_of_the_method": "as §1"}, "Gal6S(b1-4)GlcNAc": {"target": "Gal6S(b1-4)GlcNAc", "summary_of_the_method": "as §1"}, "Gal6S(b1-4)GlcNAc6S": {"target": "Gal6S(b1-4)GlcNAc6S", "summary_of_the_method": "as §1"}, "GalNAc(a1-3)Gal": {"target": "GalNAc(a1-3)Gal", "summary_of_the_method": "as §1"}, "GalNAc(a1-3)GalNAc": {"target": "GalNAc(a1-3)GalNAc", "summary_of_the_method": "as §1"}, "[8]": {"target": "GalNAc(a1-3)GalNAc(b1-3)Gal(a1-4)Gal(b1-4)Glc", "summary_of_the_method": "as §1"}, "[9]": {"target": "GalNAc(a1-3)GalNAc(b1-3)Gal(a1-4)Gal(b1-4)GlcNAc", "summary_of_the_method": "as §1"}, "GalNAc(b1-3)Gal": {"target": "GalNAc(b1-3)Gal", "summary_of_the_method": "as §1"}, "[10]": {"target": "GalNAc(b1-3)Gal(a1-4)Gal(b1-4)GlcNAc", "summary_of_the_method": "as §1"}, "[11]": {"target": "GalNAc(b1-3)Gal(a1-4)Gal(b1-4)GlcNAc(b1-3)Gal(b1-4)Glc", "summary_of_the_method": "as §1"}, "[12]": {"target": "GalNAc(b1-3)Gal(a1-6)Gal(b1-4)Glc", "summary_of_the_method": "as §1"}, "GalNAc(b1-3)GalNAc": {"target": "GalNAc(b1-3)GalNAc", "summary_of_the_method": "as §1"}, "GalNAc(b1-3)GlcNAc": {"target": "GalNAc(b1-3)GlcNAc", "summary_of_the_method": "as §1"}, "GalNAc(b1-4)Gal(b1-4)Glc": {"target": "GalNAc(b1-4)Gal(b1-4)Glc", "summary_of_the_method": "as §1"}, "GalNAc(b1-4)GlcNAc": {"target": "GalNAc(b1-4)GlcNAc", "summary_of_the_method": "as §1"}},
  "note": "Some of the results follow.",
  "data": [
    {"binder": "B1", "values": [
      {"measurement": "glycan array binding signal (z-score)", "setting": "[1]", "value": -0.228},
      {"measurement": "glycan array binding signal (z-score)", "setting": "[2]", "value": 1.14},
      {"measurement": "glycan array binding signal (z-score)", "setting": "[3]", "value": -0.289},
      {"measurement": "glycan array binding signal (z-score)", "setting": "Gal(b1-4)GlcNAc6P", "value": 0.41},
      {"measurement": "glycan array binding signal (z-score)", "setting": "Gal(b1-6)Gal", "value": 0.208},
      {"measurement": "glycan array binding signal (z-score)", "setting": "Gal3S(b1-3)GalNAc", "value": -0.135},
      {"measurement": "glycan array binding signal (z-score)", "setting": "Gal3S(b1-3)GlcNAc", "value": -0.054},
      {"measurement": "glycan array binding signal (z-score)", "setting": "[4]", "value": -0.01},
      {"measurement": "glycan array binding signal (z-score)", "setting": "Gal3S(b1-4)Glc", "value": 0.503},
      {"measurement": "glycan array binding signal (z-score)", "setting": "Gal3S(b1-4)Glc6S", "value": 0.204},
      {"measurement": "glycan array binding signal (z-score)", "setting": "Gal3S(b1-4)GlcNAc", "value": 0.011},
      {"measurement": "glycan array binding signal (z-score)", "setting": "[5]", "value": -0.038},
      {"measurement": "glycan array binding signal (z-score)", "setting": "[6]", "value": -0.198},
      {"measurement": "glycan array binding signal (z-score)", "setting": "[7]", "value": 0.165},
      {"measurement": "glycan array binding signal (z-score)", "setting": "Gal3S4S(b1-4)GlcNAc", "value": -0.092},
      {"measurement": "glycan array binding signal (z-score)", "setting": "Gal3S6S(b1-4)GlcNAc", "value": -0.105},
      {"measurement": "glycan array binding signal (z-score)", "setting": "Gal3S6S(b1-4)GlcNAc6S", "value": -0.035},
      {"measurement": "glycan array binding signal (z-score)", "setting": "Gal4S(b1-4)GlcNAc", "value": -0.324},
      {"measurement": "glycan array binding signal (z-score)", "setting": "Gal4S6S(b1-4)GlcNAc", "value": -0.234},
      {"measurement": "glycan array binding signal (z-score)", "setting": "Gal6P(b1-4)GlcNAc", "value": 0.103},
      {"measurement": "glycan array binding signal (z-score)", "setting": "Gal6S(b1-3)GlcNAc", "value": -0.271},
      {"measurement": "glycan array binding signal (z-score)", "setting": "Gal6S(b1-3)GlcNAc6S", "value": -0.051},
      {"measurement": "glycan array binding signal (z-score)", "setting": "Gal6S(b1-4)Glc", "value": 0.078},
      {"measurement": "glycan array binding signal (z-score)", "setting": "Gal6S(b1-4)Glc6S", "value": -0.41},
      {"measurement": "glycan array binding signal (z-score)", "setting": "Gal6S(b1-4)GlcNAc", "value": -0.269},
      {"measurement": "glycan array binding signal (z-score)", "setting": "Gal6S(b1-4)GlcNAc6S", "value": -0.154},
      {"measurement": "glycan array binding signal (z-score)", "setting": "GalNAc(a1-3)Gal", "value": -0.08},
      {"measurement": "glycan array binding signal (z-score)", "setting": "GalNAc(a1-3)GalNAc", "value": -0.109},
      {"measurement": "glycan array binding signal (z-score)", "setting": "[8]", "value": -0.327},
      {"measurement": "glycan array binding signal (z-score)", "setting": "[9]", "value": -0.175},
      {"measurement": "glycan array binding signal (z-score)", "setting": "GalNAc(b1-3)Gal", "value": 0.356},
      {"measurement": "glycan array binding signal (z-score)", "setting": "[10]", "value": -0.194},
      {"measurement": "glycan array binding signal (z-score)", "setting": "[11]", "value": -0.311},
      {"measurement": "glycan array binding signal (z-score)", "setting": "[12]", "value": -0.296},
      {"measurement": "glycan array binding signal (z-score)", "setting": "GalNAc(b1-3)GalNAc", "value": -0.141},
      {"measurement": "glycan array binding signal (z-score)", "setting": "GalNAc(b1-3)GlcNAc", "value": -0.074},
      {"measurement": "glycan array binding signal (z-score)", "setting": "GalNAc(b1-4)Gal(b1-4)Glc", "value": 1.15},
      {"measurement": "glycan array binding signal (z-score)", "setting": "GalNAc(b1-4)GlcNAc", "value": -0.08}
    ]}
  ]
}
